In publication PMC6919601, “Identification of Plasmodium dipeptidyl aminopeptidase allosteric inhibitors by high throughput screening” (PLoS ONE, 2019):
Hit rate of the full screen: of about 110,000 compounds, about 230 (0.21%) showed an effect of 50% or more. The list shows a part of the results.

Each compound was assayed against DPAP1 (Plasmodium falciparum, UniProt Q8IIJ9) (assay: primary screen, percent inhibition; read by cleavage of a fluorogenic dipeptide substrate; higher = more effect of the substance).
Set-up: species or system P. falciparum D10 trophozoite lysates; single well
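Further: 30 min substrate incubation versus DMSO and 10 µM JCP410 controls.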

DPAP1, sequence (Q8IIJ9 whole entry, looked up): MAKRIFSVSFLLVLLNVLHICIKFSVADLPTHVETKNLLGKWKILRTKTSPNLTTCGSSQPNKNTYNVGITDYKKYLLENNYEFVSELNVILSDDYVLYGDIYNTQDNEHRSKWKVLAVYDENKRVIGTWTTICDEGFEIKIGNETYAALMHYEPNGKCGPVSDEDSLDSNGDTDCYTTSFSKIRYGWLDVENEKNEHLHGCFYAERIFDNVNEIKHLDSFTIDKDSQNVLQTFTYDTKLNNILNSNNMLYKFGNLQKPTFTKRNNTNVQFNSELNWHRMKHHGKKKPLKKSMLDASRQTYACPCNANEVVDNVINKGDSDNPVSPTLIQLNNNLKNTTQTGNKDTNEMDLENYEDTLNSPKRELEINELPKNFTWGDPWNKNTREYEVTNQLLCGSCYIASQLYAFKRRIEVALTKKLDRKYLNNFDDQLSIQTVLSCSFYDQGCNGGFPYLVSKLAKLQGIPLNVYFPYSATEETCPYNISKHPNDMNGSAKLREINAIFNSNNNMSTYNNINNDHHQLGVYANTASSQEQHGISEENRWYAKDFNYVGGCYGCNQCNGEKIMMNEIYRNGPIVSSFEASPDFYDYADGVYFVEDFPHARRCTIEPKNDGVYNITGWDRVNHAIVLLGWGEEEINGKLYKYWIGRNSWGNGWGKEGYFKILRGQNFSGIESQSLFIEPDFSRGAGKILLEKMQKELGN

Point of comparison: COc1ccc(C(=O)Nc2ccc(S(=O)(=O)Nc3nccc(C)n3)cc2)cc1OC, “% Inhibition @ 10 uM” value -1.44%. Against it:
- Cc1nc2c(C(=O)O)cnn2c(C)c1Cc1ccc(Cl)cc1 — higher, 1.42%
- O=C(C1=C(O)C(=O)N(CCCn2ccnc2)C1c1cccs1)c1cc2ccccc2o1 (stereo not drawn) — higher, 2.92%
- COc1ccc2c(c1)c1c3n2CCN(C)C3=NCC1 — higher, 3.8%
- COCCCN(Cc1ccco1)C(=O)c1nn(C)c2c1COc1ccccc1-2 — lower, -3.51%
- CCOc1cccc2cc(-c3cn4c(n3)sc3cc(Cl)ccc34)c(=O)oc12 — higher, 3.05%
- CC(C)NC(=O)c1ccc(COc2cccc3ccccc23)o1 — lower, -3.13%
- CSc1nc2c(c(=O)n1C1CCOC(C)(C)C1)C1(CCCC1)Cc1ccccc1-2 (stereo not drawn) — higher, 2.38%
- O=C(Cn1ccc2ccccc2c1=O)NCCC(=O)NC1CCCCCC1 — higher, -0.58%
- CCOC(=O)C1CCN(Cc2ccc3c(c2)OCO3)CC1 — higher, -0.0404%
- COc1ccc(CN(CCC2(c3ccccc3)CCOC(C)(C)C2)C(C)=O)cc1OC (stereo not drawn) — higher, 6.22%
- Cc1cccc(N(CC(=O)N2CCCCCC2)S(C)(=O)=O)c1C — lower, -3.65%
- CCOC(=O)C1CCCN(Cc2ccc(C(F)(F)F)cc2)C1 (stereo not drawn) — higher, 1.63%
- CC(CC(NC(=O)OCc1ccccc1)C(=O)NCC#N)C(F)(F)F (stereo not drawn) — higher, 3.66%
- CCOc1ccc(-c2nonc2NC(=O)c2cc(OC)c(OC)c(OC)c2)cc1OCC — higher, 3.51%
- CN1C(=O)C(=Cc2cn(-c3ccccc3)nc2-c2ccccc2)C(=O)N(C)C1=O — higher, 15.5%
- COc1ccc(-c2csc3ncn(CC(=O)Nc4ccccc4)c(=O)c23)cc1OC — higher, 2.76%
- O=C(CN(c1ccc(Cl)c(C(F)(F)F)c1)S(=O)(=O)c1ccccc1)NCc1cccnc1 — lower, -3.92%
- COc1ccc(CCNC(=O)CCc2c(C)c3ccc(O)c(C)c3oc2=O)cc1OC — lower, -2.57%
- CCCCn1c(N2CCCCCC2)nc2c1c(=O)[nH]c(=O)n2C — lower, -13.3%
- CN1CCC(N(C)Cc2c(Cl)cccc2Cl)CC1 — higher, -1.41%
- CC(C)c1ccc(OCC(=O)N(Cc2nc(-c3ccccc3)no2)C(C)C)cc1 — higher, 2.23%
- O=C(COc1ccc(S(=O)(=O)NC2CCCCC2)cc1)NC1CCCCC1 — higher, 0.83%
- Cc1ccc(S(=O)(=O)N(C)c2ccc(C(=O)Nc3ccccc3F)cc2)cc1 — higher, 3.49%
- Cc1ccc(C)n1CCN1CCN(C(=O)CSc2nc3ccccc3nc2N2CCOCC2)CC1 — lower, -3.53%
- Cc1cc(NC(=O)CSc2nc3nccnc3c(=O)n2Cc2ccco2)[nH]n1 — higher, 1.68%
- CCOC(=O)c1c(C)[nH]c(C)c1S(=O)(=O)N1CC=C(c2ccccc2)CC1 — lower, -4.59%
- O=S(=O)(CC1CC1(Cl)Cl)c1nc[nH]n1 (stereo not drawn) — higher, -0.0626%
- CCCC[C@H](NC(=O)[C@H](CS(=O)(=O)Cc1ccccc1)NC(=O)N1CCOCC1)C(=O)CC(=O)OCC — higher, 1.52%
- CCS(=O)(=O)c1c(S(=O)(=O)CC)c2ccccn2c1C(N)=O — lower, -5.36%
- Cc1ccc(-c2cc(C(=O)NCCN3CCOCC3)c3ccccc3n2)cc1C — lower, -3.43%
- Cc1cc(C)c(S(=O)(=O)NCCC2CCCN2C)c(C)c1 (stereo not drawn) — higher, 1.78%
- CCC(C(=O)N1CCC(N2CCCCC2)CC1)n1nc(C)c2sc3ccccc3c2c1=O (stereo not drawn) — lower, -4.09%
- Nc1c(C(=O)Nc2ccccc2)sc2nc(-c3cccs3)ccc12 — higher, 3.32%
- CCS(=O)(=O)C1=NSC2=NC(=O)/C(=C\c3ccc(OCc4ccccc4)c(OC)c3)C(=N)N21 — lower, -3.39%
- Clc1cccc(CN2CCN(Cc3ccccc3Br)CC2)c1 — higher, -1.1%
- CC(C)C[C@H](NC(=O)OCc1ccccc1)C(=O)N[C@@H](CCc1ccccc1)C(=O)c1ccco1 — higher, -0.778%
- CCCCC(=O)Nc1c(NC)c2ccccc2oc1=O — higher, -0.668%
- CCc1ccccc1-n1nnc(C(=O)OC)c1C(=O)OC — lower, -1.58%
- CCc1cc2c(SCC(=O)O)ncnc2s1 — higher, -0.294%
- Cc1cc(/C=C2/C(=N)N3C(=NC2=O)SN=C3S(C)(=O)=O)c(C)n1-c1ccc(F)cc1 — lower, -5.27%
- CCCN1C(=O)c2[nH]nc(-c3ccccc3O)c2C1c1ccc(O)c(OCC)c1 (stereo not drawn) — higher, 2.02%
- COc1ccc(-c2nc(CS(=O)CC(=O)NCc3cccnc3)c(C)o2)cc1 (stereo not drawn) — higher, 0.689%
- CCOC(=O)Nc1ccc2c(c1)N(C(=O)CCN(C)C)c1ccccc1CC2 — higher, -0.736%
- O=C(CSc1c2c(nc3ccc(Cl)cc13)CCCC2)N1CCN(C(=O)c2ccco2)CC1 — lower, -6.89%
- O=C(NCc1ccc2c(c1)OCO2)C1CCC(CNS(=O)(=O)c2cccc3nsnc23)CC1 (stereo not drawn) — higher, 2.93%
- O=C1OC(c2ccccc2)=N/C1=C\c1ccccc1Cl — higher, 9.52%
- O=S(=O)(Nc1ccccc1Br)c1ccccc1 — lower, -1.86%
- Cc1nc2ccn(Cc3cccnc3)c(=O)c2cc1C(=O)N1CCN(c2ccccn2)CC1 — lower, -8.32%
- CCCn1c(CCc2ccccc2)nnc1SCc1nc(-c2cccs2)no1 — lower, -5.91%
- CC[C@H](NC(=O)[C@H](CS(=O)(=O)Cc1ccccc1)OC(=O)N1CCOCC1)C(=O)C(=O)NCc1ccccc1 — lower, -1.61%
- Cc1ccccc1OCC(=O)Nc1cccc(Cl)c1 — higher, 5.66%
- COc1ccc2ccccc2c1C1C(C#N)=C(N)Oc2c1c(C)nn2-c1ccccc1 (stereo not drawn) — higher, 0.746%
- Cc1ccccc1OC(C)C(=O)Nc1cccc2ccccc12 (stereo not drawn) — higher, 1.28%
- CC(C)N1CC2=C(OC(N)=C(C#N)C2c2ccccc2F)/C(=C/c2ccccc2F)C1 (stereo not drawn) — higher, -0.988%
- CCC(=O)CC(c1ccc([N+](=O)[O-])cc1)c1c(OC)c2ccccc2oc1=O (stereo not drawn) — higher, 0.00178%
- COc1cccc(OC)c1C(=O)N1CCN(Cc2c(OC)ccc3ccccc23)CC1 — higher, 4.7%
- O=C(c1nn2c(C(F)(F)F)cc(-c3cccs3)nc2c1Cl)N1CCCC1 — higher, 3.32%
- CCc1ccccc1-n1nnc(-c2nsc(NC(=O)c3ccc(OC)cc3)n2)c1C — lower, -3.04%
- CC(C)Cc1cc(-c2ccc([N+](=O)[O-])cc2)c(C#N)c(N)n1 — higher, -0.446%
